Paper PMC10320511
These are yes or no findings as the source states them, for the method shown. In cells and extracts the contact can be indirect. Some binding calls cover weakened binding; strength is not graded here. Where a sequence is shown, tags or fusion partners need not be part of it.

T1: FRQ D874A, D875A, E876A, E877A, E879A, E880A, E882A, E883A, D884A, V5H6-tagged (Neurospora crassa) (UniProt P19970)
T1 sequence: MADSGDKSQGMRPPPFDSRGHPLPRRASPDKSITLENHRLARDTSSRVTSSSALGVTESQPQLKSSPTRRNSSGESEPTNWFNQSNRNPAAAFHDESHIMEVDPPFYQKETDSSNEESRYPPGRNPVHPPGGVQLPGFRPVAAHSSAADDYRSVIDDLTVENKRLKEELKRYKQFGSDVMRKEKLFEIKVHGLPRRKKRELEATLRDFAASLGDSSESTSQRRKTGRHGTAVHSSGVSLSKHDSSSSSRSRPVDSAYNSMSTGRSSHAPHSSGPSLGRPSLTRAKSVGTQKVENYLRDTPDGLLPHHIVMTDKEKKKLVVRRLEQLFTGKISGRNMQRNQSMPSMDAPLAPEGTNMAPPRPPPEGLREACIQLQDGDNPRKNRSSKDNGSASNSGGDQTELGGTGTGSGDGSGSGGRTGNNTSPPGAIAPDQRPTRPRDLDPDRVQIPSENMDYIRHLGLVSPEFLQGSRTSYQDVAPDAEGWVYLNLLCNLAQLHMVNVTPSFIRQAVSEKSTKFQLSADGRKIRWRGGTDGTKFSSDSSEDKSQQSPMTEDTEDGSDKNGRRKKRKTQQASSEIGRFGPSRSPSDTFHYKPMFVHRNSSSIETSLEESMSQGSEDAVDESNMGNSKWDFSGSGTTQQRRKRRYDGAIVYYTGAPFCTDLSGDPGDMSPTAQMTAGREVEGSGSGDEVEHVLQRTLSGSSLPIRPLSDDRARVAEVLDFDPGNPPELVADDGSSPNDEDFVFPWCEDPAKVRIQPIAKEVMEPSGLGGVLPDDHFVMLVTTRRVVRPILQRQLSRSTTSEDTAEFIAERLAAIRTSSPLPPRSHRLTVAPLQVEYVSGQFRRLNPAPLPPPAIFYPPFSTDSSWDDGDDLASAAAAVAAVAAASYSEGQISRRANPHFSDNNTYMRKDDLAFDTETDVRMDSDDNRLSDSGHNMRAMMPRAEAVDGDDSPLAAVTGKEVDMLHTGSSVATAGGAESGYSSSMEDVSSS

T2: FRQ Δ733–774, V5H6-tagged (Neurospora crassa) (UniProt P19970)
T2 sequence: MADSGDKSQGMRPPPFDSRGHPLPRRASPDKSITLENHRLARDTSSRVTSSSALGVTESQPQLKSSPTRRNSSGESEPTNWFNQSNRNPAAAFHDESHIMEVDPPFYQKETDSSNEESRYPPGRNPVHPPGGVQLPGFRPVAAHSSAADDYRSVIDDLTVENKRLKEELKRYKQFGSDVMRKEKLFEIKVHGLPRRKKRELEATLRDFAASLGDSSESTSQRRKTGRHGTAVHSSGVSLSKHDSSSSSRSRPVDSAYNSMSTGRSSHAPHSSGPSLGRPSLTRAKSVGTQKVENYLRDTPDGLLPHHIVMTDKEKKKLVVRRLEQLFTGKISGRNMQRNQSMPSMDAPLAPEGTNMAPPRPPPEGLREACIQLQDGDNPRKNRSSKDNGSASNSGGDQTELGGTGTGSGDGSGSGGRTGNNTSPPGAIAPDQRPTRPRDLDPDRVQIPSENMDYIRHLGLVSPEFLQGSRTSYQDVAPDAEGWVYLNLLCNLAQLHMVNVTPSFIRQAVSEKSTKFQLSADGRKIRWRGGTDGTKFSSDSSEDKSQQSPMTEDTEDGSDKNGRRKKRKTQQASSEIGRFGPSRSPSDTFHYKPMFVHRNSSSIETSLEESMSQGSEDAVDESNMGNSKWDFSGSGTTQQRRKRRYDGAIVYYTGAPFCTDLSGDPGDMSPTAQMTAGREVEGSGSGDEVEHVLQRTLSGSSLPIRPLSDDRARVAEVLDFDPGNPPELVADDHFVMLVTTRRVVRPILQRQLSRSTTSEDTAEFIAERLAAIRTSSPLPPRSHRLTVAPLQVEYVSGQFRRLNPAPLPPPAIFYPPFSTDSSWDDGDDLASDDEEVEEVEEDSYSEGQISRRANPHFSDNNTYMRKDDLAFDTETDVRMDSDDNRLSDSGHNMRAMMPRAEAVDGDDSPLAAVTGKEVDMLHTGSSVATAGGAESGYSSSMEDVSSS


Key:
[1] = target: T1, FRQ D874A, D875A, E876A, E877A, E879A, E880A, E882A, E883A, D884A, V5H6-tagged (Neurospora crassa); assay: co-IP; V5H6-tagged FRQ (wild type or mutant) pulled down with V5 agarose from Neurospora lysate (cultures in the light, 25 °C); 50 mM Hepes pH 7.4, 137 mM NaCl, 10% glycerol, 0.4% NP-40; 4 °C, 2 h; Western blot with FRQ, FRH, WC-1 and WC-2 antibodies
[2] = target: T2, FRQ Δ733–774, V5H6-tagged (Neurospora crassa); assay: as above

| binding [1] | binding [2] | Binder |
| --- | --- | --- |
| binds | no binding | FRQ-interacting RNA helicase (FRH) (protein, UniProt Q1K502 1-1106) MDDLFEVFEEQPRAQKKRKASPDVEMADGAAAAAPVANAAAAVTHPQAQAAPAPQKDNIDNNDNNNNNTTTSAVQPTIPNGDAAAAADDVQSPQSPHGLGDNKRRKKTDEAEPIMTDAFQTAESREVTGAQGFAPTEGESIVLSHNIQHQVALPPDLDYEYIPLSEHKPPAEPARTYSFKLDPFQALSVASIEREESVLVSAHTSAGKTVVAEYAIAQCLKKNQRVIYTSPIKALSNQKYRDFQAEFGDVGLMTGDVTINPTASCLVMTTEILRSMLYRGSEIMREVAWVVFDEIHYMRDKIRGVVWEETIILLPDKVRYVFLSATIPNAFQFAEWIAKIHRQACHVVYTDFRPTPLQNYFFPAGGKGILLIVDEKGNFKENNFNQAMAMIEEKKGTDSNDWSAKQKGKGKNKKTNKGGEAADEKADIAKIIKMILKKNFQPVIVFNFSKRECEQMALASSSMKFNAPDEENMVNKVFENALASLSEDDKNLPQISNILPLLRKGIGVHHSGLLPILKETIEILFQEGLIKVLFATETFSIGLNMPARTVVFTQVTKWDGQQRRPLTSSEYIQMAGRAGRRGLDDRGIVIMMVDDKLEPETARAIVVGNQDKLNSAFHLGYNMVLNLLRIEAISPEYMLERCFFQFQNAASVPQLERELISLQQERDAIIIPDESIVKDYYGVRQQLEEYNKDMVFVIQHPQNCLGFFQEGRLIHIKSPSGVDYGWGVLIKHIQRQTPKNGQPPYPEQESYVLDVLLKVSGDFNPKTRGEGPMPEGIMPAGKDSKNARWEVVPCLLNCLRALGQLRVFLPKRLESADEKDGVGKAVDEISRRFPDGIPILDPMENMGINDDSFKKLLRKIEVLESRLVANPLHNSPLLVELWNQYSLKMQLGEQIKEKKKAIARAHSVAQLDELKSRKRVLRRLGFINDAEVVQMKARVACEISSTEGHELLLAELLFNRFFNELSPEICACILSCFIFDEKIETQALKEELAKPFREIQAQARIIAKVSAESKLDVNEDEYVQSLKWQLMETVLAWAQGRPFSEICKMTNVYEGSLIRLFRRLEELLRQMAEAARVMGSEELKDKFELSLSKIRRDIVSFNSLYL |
| binds weakly | no binding | White Collar-2 (WC-2) (protein, UniProt P78714 1-530) MSHGQPPPGSSMYGFGAMGMGSGMGSGMGSGMGTGMGTGMGTGMSASQMTSDPQDMMSLLDTSVFPGFDGMSMSLDVGDSMSNPFTPVSVPPPLPAGNAGPSHVGVCGGHGAPDQLFSPDDLIATSMSSAGPMIATPTTTTSGPSGGPSSGGGSTLTEFTKRRNWPAKVVEELQDWEHILDANGRIKHVSPSVEPLTGYKPPEIIDLFLRDLIHPDDVGVFTAELNEAIATGSQLRLFYRFRKKDGNWTIFETVGHAHIAAAKFAPNPQNQSPFCQAVFMMARPYPTKNAGLLDSFLEHKIENERLKRRIAELRREEQEEQEESHRTWRMSQEGRSDVTPSDDTATQMGMTPFYIPMNAQADVMMPPPSQPASSLNIALTRENLEGIAGSRPDSIREKMLRYEGNHADTIEMLTGLKYQEGERSHGITTGNASPTLIKGDAGIAIPLDRDPRTGEKKKKIKVAEEYVCTDCGTLDSPEWRKGPSGPKTLCNACGLRWAKKEKKKNANNNNNGGGIGGHNDIHTPMGDHMG |
